# Reference: paper doi:10.1101/2024.12.16.628790 (bioRxiv, 2024)
# B1: segmentally labeled full-length HSPB1 (S83C), made by split-intein splicing (natural protein)
# chain: not shown
# Target: the molecule itself
# Assay: MAS NMR
protein,measurement,value
B1,binding result,binds
